± gives the standard deviation of the averaged measurements. The list shows a part of the results.
What follows are sequences tested on PfAP2-EXP AP2 domain (GST-tagged) (assay: gcPBM binding intensity (ln(normalized median fluorescence intensity)); higher = stronger DNA binding).
In short: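 Using an Agilent 4 × 180k array, primer-extended double-stranded 36-bp intergenic genomic probes and negative controls were exposed for 1 h to GST-fused P. falciparum DNA-binding domains expressed in E. coli. Binding was carried out in 1× PBS with 1% milk, 0.2 mg/ml BSA, 0.5% salmon testes DNA and 0.03% Triton X-100, and protein was detected with Alexa488 anti-GST antibody and a 488 nm scan. Binding intensity is the highest Masliner-normalised natural-log median intensity across replicate spots of either probe orientation.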

Sequence | gcPBM binding intensity (ln)
ATATTATCATTTTTTTTAATGGAAAAAAAAAAAAAA [CACACA_negctrl_site1298] | 8.2 ± 0.61
TTTTAAATTTAGTGTAGTACACTTTTTTCAAATATA [XGTACX_site4659] | 8.28 ± 0.32
TACTTTTATAAAAATTTTATCAAATTCTATATATGT [TGCATGCA_negctrl_site308] | 8.35 ± 0.41
TTATTCTTTTAATATACACACTTTGTCTTTTCGCGC [CACACA_site5525] | 8.48 ± 0.58
ATATATATAAAAGAAACAACATTTATTCAAAAGGTA [CACACA_negctrl_site749] | 8.48 ± 0.55
GCACCCTGTATGAATGCACACATTCATAGAATTGCT [CACACA_site5475] | 8.56 ± 0.29
ATTCAAAAGATGTATACACACATGTGGATAATATAA [CACACA_site2443] | 8.96 ± 0.49
TACATATTTATATACACACACACACGGATATTTATA [CACACA_site7239] | 8.94 ± 0.28
TATTTTTCTTTTTAAAAATATATCACATGAACATTA [XGTACX_negctrl_site183] | 8.21 ± 0.43
AATAACAAAATAGGCACACGCACATATATATATATA [CACACA_site1497] | 10.1 ± 0.38
CCCCTTGTGGATTCTACACACAAAAAGTCGTCAAAA [CACACA_site821] | 8.95 ± 0.38
TGATCAAATAAGTTTGCATGTCAACAATGCATATAT [TGCATGCA_site1025] | 8.75 ± 0.49
GAATTCCTTTGTGTATGTACATAATGATATTATTTT [XGTACX_site7369] | 8.79 ± 0.38
TAATTTTTTAAACACACACACATATATATATATATA [CACACA_site4230] | 10.2 ± 0.3
TATATTTTCCTGCAAACACACATATAAATGGGTAGA [CACACA_site4451] | 8.49 ± 0.52
TTTTTTTTTTTTGGTAGTACATAATATTAATATAAT [XGTACX_site4422] | 8.49 ± 0.42
ATATACTCATTTAATACACACAAAGAGAAAATTAAT [CACACA_site1923] | 8.43 ± 0.3
ATATATATATATATGGTGCATGAAAATTTACTTTGA | 10.1 ± 0.26
GATATTTGTTCATATACACACTTTTGATAAAATATG [CACACA_site4807] | 8.71 ± 0.35

Sequence | gcPBM binding intensity (ln)
ATAGTACAACAGGTTCTTGACAAACAATATGAATGT [GTGCAC_negctrl_site442] | 8.78 ± 0.49
TAATTTTTTTTTTTTTTTCATTCTTTTCCTTTGATT [CACACA_negctrl_site1365] | 8.22 ± 0.62
TTTATATAATTTTTTTGTACATATATATGAATACAT [XGTACX_site2316] | 8.75 ± 0.61
TTTTGTTGTATGATAATTCTTTTATCAATATGTCTT [TGCATGCA_negctrl_site567] | 8.46 ± 0.33
ACCAAATTATCAAATGGTACACATAAAATAATAAAA [XGTACX_site865] | 8.55 ± 0.32
GTTTCTATTCACATTTTACACACGTCCATCGCATTT [CACACA_site9142] | 9.26 ± 0.47
TAATTAACCTATGCATTCATATAGATACATAAATAT [CACACA_negctrl_site885] | 8.43 ± 0.4
TGAATACATAAATATAGTACATATATATATATATTA [XGTACX_site8756] | 8.23 ± 0.16
AGATCATAATATTATACACACATTATGTATATGTAA [CACACA_site1490] | 8.33 ± 0.47
TATAATATTATTTGAAGTACAAACATAAAAGAATTA [XGTACX_site3161] | 8.57 ± 0.38
TACAAAAAATTATGGAGTACATATATAATATACAAT [XGTACX_site1004] | 8.5 ± 0.33
GAACCATTTTTTGGTATACACACGTAATTATAGAAT [CACACA_site1851] | 8.65 ± 0.42
CACTTTTTTTAAATGTGTACGTATATGAAAATATCA [XGTACX_site4854] | 8.33 ± 0.33
TAAAAAAATAAAATTACACACATATATAGATATATA [CACACA_site7273] | 8.16 ± 0.29
ATATACATATCATGTAGTACAATTTTTTTACTTTTT [XGTACX_site7988] | 8.3 ± 0.3
TAAACAAAAAGGAAGAGTACTTGTAAAATTTGTAAA [XGTACX_site3003] | 8.86 ± 0.5
AATTGGGAACTGTAATGTACATATATTGAAAGTATA [XGTACX_site7081] | 8.87 ± 0.35
ACAAAAAAAAATATGTTAACTATATATATATATATA [CACACA_negctrl_site346] | 10.1 ± 0.43
TATTTATTTGTACATATACACACTTAAATATGTTTA [CACACA_site3902] | 8.64 ± 0.38

Sequence | gcPBM binding intensity (ln)
TTATATTTCTTGAAGGGTACATACCATTATTTTTAA [XGTACX_site1159] | 8.37 ± 0.3
ATACATATATTAGGATGTACGTTTATTTTAGTTATT [XGTACX_site7169] | 8.41 ± 0.15
AGAAAACTCGCTTTTCTAAATCTCAAAAAAAAAAAA [XGTACX_negctrl_site94] | 8.21 ± 0.38
ATATATTTATATATTACACACAATATTGGAGACATA [CACACA_site931] | 8.81 ± 0.42
TATATATATATAGATGCATGCAATTACATATAACAA [TGCATGCA_site118] | 10.2 ± 0.23
TTGTGTACATATTAAGTGCATATATATATATATATA | 10.4 ± 0.33
ATTTTCTATATCTTTCAACACACAAATTTTTTTTTC [CACACA_site7918] | 8.69 ± 0.6
TACATCAAACAAGTATGTACATATATATATATATAT [XGTACX_site7415] | 10.2 ± 0.49
GCATATGATGAGCATATAATCATAAGAAAAAAAAAA [CACACA_negctrl_site701] | 8.35 ± 0.57
TATGTAATAATAAACGGTACACTATATTGTATGAAA [XGTACX_site4648] | 8.71 ± 0.36
AATAAATAGTAGTAGGTGCTACTATATTATATATAT [GTGCAC_site9452] | 8.63 ± 0.16
ATTATGAATTTTAATTGTACATTATTATAGAATGTA [XGTACX_site619] | 8.36 ± 0.38
AATAATTCTTAAAGGTGTACAATATGTATATAAGAA [XGTACX_site595] | 8.9 ± 0.33
AGTTATTTTTATATTTCACACACATATACTTTTACA [CACACA_site9357] | 8.88 ± 0.4
AAATTTTTTATTAGTAGTACGCATAAATATATGTAT [XGTACX_site1934] | 8.6 ± 0.37
AAAAATTCTTCCCAAGCATGCGCGCGTAAAATATTT [TGCATGCA_site77] | 9.4 ± 0.071
AAAAAAATAAGACACACACACAAAAAAATAAAAATA [CACACA_site6357] | 8.65 ± 0.57
AAAAAAAAAAGAAAAGGTACACAGAATATATATATA [XGTACX_site6914] | 9.84 ± 0.11

From the supplement of paper PMC11417369
